# Results reported in the supplement of paper PMC8728848.
# This is one part of the list.
# Key:
# Experiment in all cases: glycan array binding signal (z-score within array); higher = stronger binding
# Conditions in all cases: glycan notation: IUPAC condensed, linker removed
# [1] = biological target: Gal(b1-4)GlcNAc(b1-3)Gal(b1-4)GlcNAc(b1-3)Gal(b1-4)GlcNAc(b1-2)[Gal(b1-4)GlcNAc(b1-3)Gal(b1-4)GlcNAc(b1-3)Gal(b1-4)GlcNAc(b1-6)]Man(a1-6)[Gal(b1-4)GlcNAc(b1-3)Gal(b1-4)GlcNAc(b1-3)Gal(b1-4)GlcNAc(b1-2)Man(a1-3)]Man(b1-4)GlcNAc(b1-4)[Fuc(a1-6)]GlcNAc
# Summary of the method: (§1)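 The binding signal is a Z-score computed within each array and averaged over linkers. Arrays of the same protein sequence at different concentrations or buffers were also averaged together. Data originate from 3228 arrays in the Consortium for Functional Glycomics database, kept only where the protein sequence was available.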
# [2] = biological target: Gal(b1-4)GlcNAc(b1-3)Gal(b1-4)GlcNAc(b1-3)Gal(b1-4)GlcNAc(b1-3)Gal(b1-4)GlcNAc(b1-2)Man(a1-3)[Gal(b1-4)GlcNAc(b1-3)Gal(b1-4)GlcNAc(b1-3)Gal(b1-4)GlcNAc(b1-3)Gal(b1-4)GlcNAc(b1-2)Man(a1-6)]Man(b1-4)GlcNAc(b1-4)GlcNAc
# Summary of the method: as §1
# [3] = biological target: Gal(b1-4)GlcNAc(b1-3)Gal(b1-4)GlcNAc(b1-3)Gal(b1-4)GlcNAc(b1-3)Gal(b1-4)GlcNAc(b1-2)Man(a1-3)[Gal(b1-4)GlcNAc(b1-3)Gal(b1-4)GlcNAc(b1-3)Gal(b1-4)GlcNAc(b1-3)Gal(b1-4)GlcNAc(b1-2)Man(a1-6)]Man(b1-4)GlcNAc(b1-4)[Fuc(a1-6)]GlcNAc
# Summary of the method: as §1
# [4] = biological target: Gal(b1-4)GlcNAc(b1-3)Gal(b1-4)GlcNAc(b1-3)Gal(b1-4)GlcNAc(b1-3)Gal(b1-4)GlcNAc(b1-2)[Gal(b1-4)GlcNAc(b1-3)Gal(b1-4)GlcNAc(b1-3)Gal(b1-4)GlcNAc(b1-3)Gal(b1-4)GlcNAc(b1-6)]Man(a1-6)[Gal(b1-4)GlcNAc(b1-3)Gal(b1-4)GlcNAc(b1-3)Gal(b1-4)GlcNAc(b1-3)Gal(b1-4)GlcNAc(b1-2)Man(a1-3)]Man(b1-4)GlcNAc(b1-4)[Fuc(a1-6)]GlcNAc
# Summary of the method: as §1
# [5] = biological target: Gal(b1-4)GlcNAc(b1-3)Gal(b1-4)GlcNAc(b1-3)Gal(b1-4)GlcNAc(b1-3)Gal(b1-4)GlcNAc(b1-3)Gal(b1-4)GlcNAc(b1-2)Man(a1-3)[Gal(b1-4)GlcNAc(b1-3)Gal(b1-4)GlcNAc(b1-3)Gal(b1-4)GlcNAc(b1-3)Gal(b1-4)GlcNAc(b1-3)Gal(b1-4)GlcNAc(b1-2)Man(a1-6)]Man(b1-4)GlcNAc(b1-4)GlcNAc
# Summary of the method: as §1
# [6] = biological target: Gal(b1-4)GlcNAc(b1-3)Gal(b1-4)GlcNAc(b1-3)Gal(b1-4)GlcNAc(b1-3)Gal(b1-4)GlcNAc(b1-3)Gal(b1-4)GlcNAc(b1-2)Man(a1-3)[Gal(b1-4)GlcNAc(b1-3)Gal(b1-4)GlcNAc(b1-3)Gal(b1-4)GlcNAc(b1-3)Gal(b1-4)GlcNAc(b1-3)Gal(b1-4)GlcNAc(b1-2)Man(a1-6)]Man(b1-4)GlcNAc(b1-4)[Fuc(a1-6)]GlcNAc
# Summary of the method: as §1
# [7] = biological target: Gal(b1-4)GlcNAc(b1-3)Gal(b1-4)GlcNAc(b1-3)Gal(b1-4)GlcNAc(b1-3)Gal(b1-4)GlcNAc(b1-3)Gal(b1-4)GlcNAc(b1-2)[Gal(b1-4)GlcNAc(b1-3)Gal(b1-4)GlcNAc(b1-3)Gal(b1-4)GlcNAc(b1-3)Gal(b1-4)GlcNAc(b1-3)Gal(b1-4)GlcNAc(b1-6)]Man(a1-6)[Gal(b1-4)GlcNAc(b1-3)Gal(b1-4)GlcNAc(b1-3)Gal(b1-4)GlcNAc(b1-3)Gal(b1-4)GlcNAc(b1-3)Gal(b1-4)GlcNAc(b1-2)Man(a1-3)]Man(b1-4)GlcNAc(b1-4)[Fuc(a1-6)]GlcNAc
# Summary of the method: as §1
# [8] = biological target: Gal(b1-4)GlcNAc(b1-3)Gal(b1-4)GlcNAc(b1-3)Gal(b1-4)GlcNAc(b1-3)Gal(b1-4)GlcNAc(b1-3)Gal(b1-4)GlcNAc(b1-3)Gal(b1-4)GlcNAc(b1-2)Man(a1-3)[Gal(b1-4)GlcNAc(b1-3)Gal(b1-4)GlcNAc(b1-3)Gal(b1-4)GlcNAc(b1-3)Gal(b1-4)GlcNAc(b1-3)Gal(b1-4)GlcNAc(b1-3)Gal(b1-4)GlcNAc(b1-2)Man(a1-6)]Man(b1-4)GlcNAc(b1-4)GlcNAc
# Summary of the method: as §1
# [9] = biological target: Gal(b1-4)GlcNAc(b1-3)Gal(b1-4)GlcNAc(b1-3)GalNAc
# Summary of the method: as §1
# [10] = biological target: Gal(b1-4)GlcNAc(b1-3)Gal(b1-4)GlcNAc(b1-3)[Gal(b1-4)GlcNAc(b1-3)Gal(b1-4)GlcNAc(b1-6)]GalNAc
# Summary of the method: as §1
# [11] = biological target: Gal(b1-4)GlcNAc(b1-3)Gal(b1-4)GlcNAc(b1-6)[Gal(b1-3)]GalNAc
# Summary of the method: as §1
# [12] = biological target: Gal(b1-4)GlcNAc(b1-3)Gal(b1-4)[Fuc(a1-3)GlcNAc(b1-6)]Gal(b1-4)Glc
# Summary of the method: as §1
# [13] = biological target: Gal(b1-4)GlcNAc(b1-3)Gal(b1-4)[Fuc(a1-3)]GlcNAc(b1-3)Gal(b1-4)[Fuc(a1-3)]GlcNAc
# Summary of the method: as §1
# [14] = biological target: Gal(b1-4)GlcNAc(b1-3)GalNAc
# Summary of the method: as §1
# [15] = biological target: Gal(b1-4)GlcNAc(b1-3)[Fuc(a1-3)GlcNAc(b1-6)]Gal(b1-4)Glc
# Summary of the method: as §1
# [16] = biological target: Gal(b1-4)GlcNAc(b1-3)[Fuc(a1-3)[Gal(b1-4)]GlcNAc(b1-6)]Gal(b1-4)Glc
# Summary of the method: as §1
# [17] = biological target: Gal(b1-4)GlcNAc(b1-3)[Gal(b1-4)GlcNAc(b1-6)]Gal(b1-4)Glc
# Summary of the method: as §1
# [18] = biological target: Gal(b1-4)GlcNAc(b1-3)[Gal(b1-4)GlcNAc(b1-6)]Gal(b1-4)GlcNAc
# Summary of the method: as §1
# [19] = biological target: Gal(b1-4)GlcNAc(b1-3)[Gal(b1-4)GlcNAc(b1-6)]Gal(b1-4)GlcNAc(b1-3)Gal(b1-4)Glc
# Summary of the method: as §1
# [20] = biological target: Gal(b1-4)GlcNAc(b1-3)[Gal(b1-4)GlcNAc(b1-6)]Gal(b1-4)GlcNAc(b1-3)[Gal(b1-4)GlcNAc(b1-6)]Gal(b1-4)GlcNAc(b1-3)Gal(b1-4)Glc
# Summary of the method: as §1
# [21] = biological target: Gal(b1-4)GlcNAc(b1-3)[Gal(b1-4)GlcNAc(b1-6)]Gal(b1-4)GlcNAc(b1-3)[Gal(b1-4)GlcNAc(b1-6)]Gal(b1-4)GlcNAc(b1-3)[Gal(b1-4)GlcNAc(b1-6)]Gal(b1-4)GlcNAc(b1-3)Gal(b1-4)Glc
# Summary of the method: as §1
# [22] = biological target: Gal(b1-4)GlcNAc(b1-3)[Gal(b1-4)GlcNAc(b1-6)]Gal(b1-4)GlcNAc(b1-3)[Gal(b1-4)GlcNAc(b1-6)]Gal(b1-4)GlcNAc(b1-3)[Gal(b1-4)GlcNAc(b1-6)]Gal(b1-4)GlcNAc(b1-3)[Gal(b1-4)GlcNAc(b1-6)]Gal(b1-4)GlcNAc(b1-3)Gal(b1-4)Glc
# Summary of the method: as §1
# [23] = biological target: Gal(b1-4)GlcNAc(b1-3)[Gal(b1-4)GlcNAc(b1-6)]GalNAc
# Summary of the method: as §1
# [24] = biological target: Gal(b1-4)GlcNAc(b1-3)[GlcNAc(b1-6)]Gal(b1-4)GlcNAc
# Summary of the method: as §1
# [25] = biological target: Gal(b1-4)GlcNAc(b1-6)Gal(b1-4)GlcNAc
# Summary of the method: as §1
# [26] = biological target: Gal(b1-4)GlcNAc(b1-6)Gal(b1-4)GlcNAc(b1-6)GalNAc
# Summary of the method: as §1
# [27] = biological target: Gal(b1-4)GlcNAc(b1-6)GalNAc
# Summary of the method: as §1
# [28] = biological target: Gal(b1-4)GlcNAc(b1-6)[Gal(b1-3)]GalNAc
# Summary of the method: as §1
# [29] = biological target: Gal(b1-4)GlcNAc(b1-6)[Gal(b1-4)GlcNAc(b1-3)]GalNAc
# Summary of the method: as §1
# Gal(b1-4)GlcNAc6P = biological target: Gal(b1-4)GlcNAc6P
# Summary of the method: as §1
# Gal(b1-6)Gal = biological target: Gal(b1-6)Gal
# Summary of the method: as §1
# Gal(b1-6)GalNAc = biological target: Gal(b1-6)GalNAc
# Summary of the method: as §1
# Gal3S(b1-3)GalNAc = biological target: Gal3S(b1-3)GalNAc
# Summary of the method: as §1
# [30] = biological target: Gal3S(b1-3)GalNAc(b1-4)Gal3S(b1-4)Glc
# Summary of the method: as §1
# Gal3S(b1-3)GlcNAc = biological target: Gal3S(b1-3)GlcNAc
# Summary of the method: as §1
# [31] = biological target: Gal3S(b1-3)[Fuc(a1-4)]GlcNAc
# Summary of the method: as §1
# [32] = biological target: Gal3S(b1-3)[Fuc(a1-4)]GlcNAc(b1-3)Gal(b1-4)Glc
# Summary of the method: as §1
# Gal3S(b1-4)Glc = biological target: Gal3S(b1-4)Glc
# Summary of the method: as §1
binder,measurement,setting,value
"PNA (Arachis hypogaea), P02872 (protein) MKPFCVFLTFFLLLAASSKKVDSAETVSFNFNSFSEGNPAINFQGDVTVLSNGNIQLTNLNKVNSVGRVLYAMPVRIWSSATGNVASFLTSFSFEMKDIKDYDPADGIIFFIAPEDTQIPAGSIGGGTLGVSDTKGAGHFVGVEFDTYSNSEYNDPPTDHVGIDVNSVDSVKTVPWNSVSGAVVKVTVIYDSSTKTLSVAVTNDNGDITTIAQVVDLKAKLPERVKFGFSASGSLGGRQIHLIRSWSFTSTLITTTRRSIDNNEKKIMNMASA",glycan array binding signal (z-score),[1],-0.179
same,glycan array binding signal (z-score),[2],-0.229
same,glycan array binding signal (z-score),[3],-0.168
same,glycan array binding signal (z-score),[4],-0.225
same,glycan array binding signal (z-score),[5],-0.247
same,glycan array binding signal (z-score),[6],-0.218
same,glycan array binding signal (z-score),[7],-0.203
same,glycan array binding signal (z-score),[8],-0.332
same,glycan array binding signal (z-score),[9],0.16
same,glycan array binding signal (z-score),[10],0.479
same,glycan array binding signal (z-score),[11],1.59
same,glycan array binding signal (z-score),[12],-0.095
same,glycan array binding signal (z-score),[13],-0.115
same,glycan array binding signal (z-score),[14],-0.097
same,glycan array binding signal (z-score),[15],-0.247
same,glycan array binding signal (z-score),[16],-0.073
same,glycan array binding signal (z-score),[17],0.007
same,glycan array binding signal (z-score),[18],-0.153
same,glycan array binding signal (z-score),[19],-0.162
same,glycan array binding signal (z-score),[20],1.2
same,glycan array binding signal (z-score),[21],1.14
same,glycan array binding signal (z-score),[22],4.16
same,glycan array binding signal (z-score),[23],-0.215
same,glycan array binding signal (z-score),[24],-0.151
same,glycan array binding signal (z-score),[25],-0.129
same,glycan array binding signal (z-score),[26],-0.193
same,glycan array binding signal (z-score),[27],-0.137
same,glycan array binding signal (z-score),[28],5.42
same,glycan array binding signal (z-score),[29],-0.112
same,glycan array binding signal (z-score),Gal(b1-4)GlcNAc6P,-0.238
same,glycan array binding signal (z-score),Gal(b1-6)Gal,-0.246
same,glycan array binding signal (z-score),Gal(b1-6)GalNAc,0
same,glycan array binding signal (z-score),Gal3S(b1-3)GalNAc,-0.129
same,glycan array binding signal (z-score),[30],-0.195
same,glycan array binding signal (z-score),Gal3S(b1-3)GlcNAc,-0.183
same,glycan array binding signal (z-score),[31],-0.143
same,glycan array binding signal (z-score),[32],-0.195
same,glycan array binding signal (z-score),Gal3S(b1-4)Glc,-0.165
